# Laboratory results as given in the supplement of paper PMC11417369.
# ± gives the standard deviation of the averaged measurements. The list shows a part of the results.
# Tested on: PfAP2-LT AP2 domain (GST-tagged)
# Test: gcPBM binding intensity (ln(normalized median fluorescence intensity)); higher = stronger DNA binding
# Procedure, shortened: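 DNA-binding domains from P. falciparum, fused to GST and produced in E. coli, were put on an Agilent 4 × 180k double-stranded probe array for 1 h in 1× PBS holding 1% milk, 0.2 mg/ml BSA, 0.5% salmon testes DNA and 0.03% Triton X-100. Probes were primer-extended, 36 bp long and drawn from intergenic genomic regions, with negative controls included. After Alexa488 anti-GST antibody detection and a 488 nm scan, binding intensity was set as the highest Masliner-normalised natural-log median intensity across replicate spots of either probe orientation.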
row,Sequence,gcPBM binding intensity (ln)
1,ACAAAAATAAGCAAATGTACATATGTATAATATATT [XGTACX_site2492],9.14 ± 0.39
2,TATAAACATAAATATACACACAAACATATAGGTATT [CACACA_site6690],9.17 ± 0.44
3,ATATTATAATTGAAGGTGCAAAATGTAATATAGATA [GTGCAC_site9661],8.94 ± 0.42
4,ATTATTATTTAAAAAAGTACATTGAAGTTCATAATA [XGTACX_site3575],8.39 ± 0.4
5,ATTCATTTTTTGGGGGGTACACCCTTTTAAACATTT [XGTACX_site4797],9.45 ± 0.12
6,GTATAAAAAAATATATGTACTTATTTACATATATAT [XGTACX_site4744],8.9 ± 0.47
7,TGAAATGATATATAAACACACATATATATATATATA [CACACA_site3511],9.62 ± 0.25
8,ATTTTTAATGTGATCACACATAAATATTATATATAT [CACACA_site5641],8.74 ± 0.39
9,GGACAAGTTTTTTACATAAATAAAAAAAATAAAAAA [XGTACX_negctrl_site125],8.6 ± 0.57
10,TTAAAGCTGACATATACACACATACATAAATTCATA [CACACA_site5377],9.08 ± 0.33
11,TATACATATATTATATGTACATATATATATAATATA [XGTACX_site2942],8.71 ± 0.36
12,ATACTTATGATAAATACACACTTGAAATTAAGGATT [CACACA_site4772],8.85 ± 0.37
13,CGAACAAACAAATAAACACACAAAAAAAAATATATA [CACACA_site1825],9.11 ± 0.5
14,AATGTGAAAAAAAAAAGTACAGACCTAATCAAAAAA [XGTACX_site2486],8.84 ± 0.57
15,TTTTTTAAAAGATATATAATATGTATGAATATTCAA [XGTACX_negctrl_site380],8.26 ± 0.41
16,AATATAAAAAAAGAGGAGGGATGGTATACTTGTGGT [CACACA_negctrl_site986],9.03 ± 0.4
17,ATAGAAGGCAACTTGGTGCACAAAAAAAAAAATAAT,9.13 ± 0.5
18,AAAAAAAATACATACACACACACACCCACATATATA [CACACA_site3561],10.13 ± 0.05
19,AAGAATAAAGAATGGTGTACATGCATATAAAATATT [XGTACX_site5707],9.1 ± 0.47
20,TTTTATTTCATTTGTTGTACTTTCAAAATATTATTA [XGTACX_site2192],8.59 ± 0.49
21,ATGTTATATATGTATTGTACGTATTTTGTATATTAT [XGTACX_site6607],9.26 ± 0.4
22,AGTGTTTTTTATAAAGTGCAATATAAAAACAAAATG,8.73 ± 0.45

row,Sequence,gcPBM binding intensity (ln)
1,AATTTTTTTTTATTGTGTACTTATTTTTTTATATTT [XGTACX_site917],8.95 ± 0.65
2,AATATATTTCATTTTTGTACACACAACGTTGGAGGG [XGTACX_site6461],9.35 ± 0.3
3,CAACATATGCATATGTGTACATATTTTATTTTCAAC [XGTACX_site2237],8.82 ± 0.42
4,ACATACATATGTAAATGTACAAAATATCCATAGATT [XGTACX_site2782],9.12 ± 0.4
5,ATATACTCATTAATAACACACAATATGATAACAAAT [CACACA_site5913],9.08 ± 0.35
6,TATATATTATCAAGTGGACACACGAAAAAAAGGAAA [CACACA_site3741],8.96 ± 0.52
7,TTTTTCATATTATACTTTTATATACATATATAAAAA [XGTACX_negctrl_site281],8.38 ± 0.55
8,TAAAGATTGTTCAGTGCATGTTGGCCTGTAAATGGA [TGCATGCA_site315],8.67 ± 0.45
9,ATAATGTAGAACTAGAGTACATAAAAAAATAAACAT [XGTACX_site5205],9.21 ± 0.61
10,TTTTTTTTTTTTTTTTTTTGTCTTATATATTACGGA [CACACA_negctrl_site322],8.34 ± 0.4
11,GCTACACAATTTTTTAGTACACACATATAAATATAT [XGTACX_site3131],9.04 ± 0.46
12,TAAGATATATTTTTTTGTACACATAATAAAATAATA [XGTACX_site8938],8.22 ± 0.28
13,GATAAATCATATATAACACACATATGAATATTACAA [CACACA_site1321],8.98 ± 0.35
14,AAAAGAAACTTATTTACGCACACTTTATTGCATGTT [CACACA_site3887],9.16 ± 0.3
15,GTAATTTTGAGATGATGTACATATTTTTTCCTTGTC [XGTACX_site4103],8.94 ± 0.43
16,ATATATATTTATGTATCACACACAAAAAAAAAAAAT [CACACA_site7973],9.19 ± 0.38
17,AGTTTATTTATATACACACACATATAAATATTATAG [CACACA_site6522],9.11 ± 0.42
18,TTCTTTAAAATATTATGTACACATTGCGAACAGTTT [XGTACX_site5418],8.85 ± 0.47
19,TATATATATATATATTGTACTTATGTTTATATTCAT [XGTACX_site6258],9.37 ± 0.45
20,TATGCAAGGAACCACACACACACACCGAAATGTATA [CACACA_site4573],10 ± 0.27
21,TTTTTTATTAGTATCTGTACACATTGGTATTTGTAT [XGTACX_site6682],8.99 ± 0.53
22,AATAAATAAATATATATATATATATAATATCATAAA [CACACA_negctrl_site337],8.89 ± 0.41

row,Sequence,gcPBM binding intensity (ln)
1,TTCTTAAAATATGAAAGTACATAGGCATTATATATT [XGTACX_site8400],8.46 ± 0.49
2,ATATAGACACACACATGTACATATGCCAACGTGATA [XGTACX_site3828],9.26 ± 0.37
3,ATAAACTGAGTGGTTACACACAAAACCAATAACTTT [CACACA_site7601],9.22 ± 0.42
4,ACTATATAATATAATATATTATAATATATTATATTA [GTGCAC_negctrl_site140],8.47 ± 0.38
5,AATAATATTTATTTTTGTACATATGTGCATTATAAA [XGTACX_site3682],8.69 ± 0.47
6,TTATAATAAACCTATACACACATAAATAAATAAATA [CACACA_site2581],8.91 ± 0.42
7,TATGTATATATTTGTGCACACCAAAGTTTGATTTTA [CACACA_site1861],9.18 ± 0.53
8,ATGATCATAAAACACACACACAAAAAAAAAAAAAAA [CACACA_site1805],9.26 ± 0.44
9,ATTAATTTTATATATGCACACAAAATATGTTCATAT [CACACA_site9350],9.13 ± 0.35
10,GAATTCAACAAAAAAAGTACTCTACATAAAATAATG [XGTACX_site175],8.66 ± 0.34
11,CCATGCATACATTCTTGTACACATTTCTATTATGAG [XGTACX_site39],8.99 ± 0.33
12,ATATTGATGTATTGTTTTTTTTTTTTCTTTTTTTTT [CACACA_negctrl_site1238],8.67 ± 0.51
13,TACTCACAATGGGGTCTACAAAAAAAAAAAAATAAA [XGTACX_negctrl_site229],8.38 ± 0.61
14,TTATAAAAGGACTTCTGTACGAATTTTTTTTAATAA [XGTACX_site1411],8.16 ± 0.4
15,GAACGAAACTTTCTTACACACATTGAAATTTTTTTC [CACACA_site1779],9.09 ± 0.47
16,TCAAGAATTATATAAACACACATACATACACCCATA [CACACA_site5126],9.38 ± 0.2
17,AAAAATATAAAGAAATGTACTTATAAAAATCCCTAC [XGTACX_site3824],8.73 ± 0.34
18,TTCTGTTCAAAATATGAACACACACCGATATATATA [CACACA_site8637],9.1 ± 0.44
19,TACACCAGTTGTGGGAGTACACAAAAAAAGGGAAAA [XGTACX_site6047],9.1 ± 0.64
20,CTTTATCTTTTTCATTGTACTTTATTTTAAAATTAA [XGTACX_site4858],8.64 ± 0.5
21,AATATCATAAAATAAAGTACAAATATATATTGAAAA [XGTACX_site8813],8.94 ± 0.43
22,TGCAGTCTGGAGAAAAGTACACAGTATCTGGTAGCT [XGTACX_site2013],8.79 ± 0.56

row,Sequence,gcPBM binding intensity (ln)
1,AATAGATTTTTATGCGTGCACACATTTAACAAAAAA,8.87 ± 0.42
2,GTGCTAGTATTTAATACACACAATTGAAGTTCCTGA [CACACA_site1452],8.82 ± 0.35
3,TAACATCCTAATGTCACACATGTTATAGGTTTAAAT [CACACA_site5649],8.64 ± 0.4
4,TTCTGGTGTAAATGCACACAGAAGAAGAAAAAAAAA [CACACA_site3685],8.87 ± 0.47
5,TAATTTAATTTTCCAAGAAAAAAAAAAGAAAAAAGA [CACACA_negctrl_site1703],8.32 ± 0.45
6,TTTGAAATATTTATTTGTACATATACACACTTAAAT [XGTACX_site8321],8.84 ± 0.45
7,ATATTATTTTGTCAGGGTACATTCCATAAGTTTTTT [XGTACX_site6855],8.78 ± 0.54
8,AAAAAAAAAAAAAAAAAAACCACAAACAAATATGAA [TGCATGCA_negctrl_site34],8.72 ± 0.47
9,CCTTCATCATATTTAACACACAGAGAAAAAGCGGAT [CACACA_site274],9 ± 0.37
10,TCCTTTCTTTTTTAAACATGCATATGTAATATAAAT [TGCATGCA_site979],8.47 ± 0.44
11,TTTACATACAAATTAACACACATATAGAAAAGAGAA [CACACA_site1889],8.96 ± 0.5
12,CTCGTATATATAATACGTACATATTATATATATATA [XGTACX_site1704],8.85 ± 0.2
13,AAAAAAAATAAACACACACACATACCCATAAATATA [CACACA_site5980],10 ± 0.13
14,ATAATATAATAATACACACTCATTATATATATAAAG [CACACA_site3956],8.82 ± 0.43
15,TTTTAAAATATATTTGTATATATATATATATATATA [XGTACX_negctrl_site536],9.125 ± 0.021
16,GCTTGTTCAAAAATGAGTACATACAAATAGTTGTAT [XGTACX_site1770],8.74 ± 0.38
17,TATTTATGTAGATACACACCCATGTTATATGGAGGT [CACACA_site3461],8.84 ± 0.41
18,TTTCTTTTTTTTTTTATTTACCTGAATTATGTATTA [TGCATGCA_negctrl_site345],8.66 ± 0.61
19,TTTTTTACAAATGATATCATTTCTTTAAATATTAAA [TGCATGCA_negctrl_site279],8.32 ± 0.52
20,CTATAAATGAATGTTTGTACTTAATAATAAAAGAAA [XGTACX_site3170],8.46 ± 0.52
21,GCACACACAAAAAAAGCATGCATACTAGCTATTTTT [TGCATGCA_site18],9.37 ± 0.42
22,TATTTTTTTCATAACAGTACAATAATATATATTTTT [XGTACX_site5739],8.47 ± 0.52
